# This is one part of the list. At the low end of the ranking the order means little.
# Tested on: T1, GST-NbGlk1(82-244)
# T1 sequence: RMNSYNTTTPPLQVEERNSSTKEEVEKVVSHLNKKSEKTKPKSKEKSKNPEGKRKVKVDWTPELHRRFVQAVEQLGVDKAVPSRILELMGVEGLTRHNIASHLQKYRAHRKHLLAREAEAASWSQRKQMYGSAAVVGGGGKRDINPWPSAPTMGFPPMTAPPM
# Test: protein-binding microarray;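 further: rank-based score ranging −0.5 to +0.5 with E above 0.45 taken as significant binding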
# Conditions: NbGlk1 is a Golden2-like transcription factor of Nicotiana benthamiana; high values mean tight binding; most listed sequences are background and not binding sites; double strand, one strand shown
row,Sequence,binding signal
1,ATCTAGCC,0.191 E-score
2,ACCGTGTA,-0.0278 E-score
3,ACAGGCAG,-0.109 E-score
4,ACTTGGCT,-0.026 E-score
5,AGAACCGA,0.132 E-score
6,AGCGCGGC,-0.19 E-score
7,ACCGGCAG,-0.215 E-score
8,ACCAGACG,-0.184 E-score
9,ACGCAGGC,-0.307 E-score
10,AACGTTGT,0.00292 E-score
11,AAGTCCAC,-0.248 E-score
12,AAGAGCAG,-0.0514 E-score
13,ATGGCTAA,-0.0408 E-score
14,ATACAGAC,-0.0164 E-score
15,ATCAGATG,0.0928 E-score
16,AGAGAATG,-0.000831 E-score
17,AACTTCAA,0.0509 E-score
18,AGTACCCC,-0.293 E-score
19,ACTGTAGA,0.0528 E-score
20,AAGGTGAT,0.0735 E-score
21,AATGTAGC,-0.124 E-score
22,AACTGGGT,-0.169 E-score

row,Sequence,binding signal
1,CAGAGGGG,-0.212 E-score
2,AAAAACAA,0.143 E-score
3,CAAGGAAC,-0.168 E-score
4,AACGGAAC,-0.124 E-score
5,CAATCATA,0.255 E-score
6,ACTCCGAC,-0.178 E-score
7,AGGAGGTA,-0.0744 E-score
8,CACCCACG,-0.0445 E-score
9,ACTTACTC,-0.0421 E-score
10,ACGAGGAG,-0.157 E-score
11,ACCACGGG,-0.164 E-score
12,AAGCATGG,-0.2 E-score
13,AGCGTACC,-0.176 E-score
14,ACCTCACG,-0.156 E-score
15,CACGAACC,-0.0497 E-score
16,ACTCGGTG,-0.116 E-score
17,CAGCGTGC,-0.17 E-score
18,ACTGCGCA,-0.169 E-score
19,AGAATGGA,-0.044 E-score
20,ATCAGACC,0.0181 E-score
21,ATCTTCTG,0.347 E-score
22,CAACTATG,0.101 E-score

row,Sequence,binding signal
1,ACGCCGCT,-0.157 E-score
2,AATCTAGG,0.433 E-score
3,ACAGCAAT,0.168 E-score
4,ATACTCAC,0.143 E-score
5,AATAACAA,0.108 E-score
6,ACATGTCA,-0.154 E-score
7,ACAGGTCG,-0.278 E-score
8,ACCAAGAC,-0.146 E-score
9,AATTATAC,0.0776 E-score
10,ATAGTGTG,-0.0197 E-score
11,AACCGGCG,-0.207 E-score
12,ACATGCGG,-0.141 E-score
13,AGAAGTAA,0.0919 E-score
14,CACATCCG,0.0717 E-score
15,ATTCTCTA,0.306 E-score
16,AAGGAACG,-0.121 E-score
17,ACGCTACT,-0.0327 E-score
18,ATAGGCCG,-0.0897 E-score
19,ACCTTGTG,-0.127 E-score
20,AGTACGGG,-0.105 E-score
21,AACATAAG,0.0614 E-score
22,ACTAAACA,0.0332 E-score

row,Sequence,binding signal
1,ATTTATGG,0.0213 E-score
2,ACCCAGCG,-0.203 E-score
3,ATAGTGGG,-0.121 E-score
4,ACGCGCCT,-0.193 E-score
5,AGCTCGTA,-0.0695 E-score
6,AAATGGTG,-0.106 E-score
7,ATAGTTTA,0.0514 E-score
8,AGTACGAT,0.184 E-score
9,ATCGATTA,0.207 E-score
10,AGGCTCGC,-0.34 E-score
11,ACTCCATC,-0.111 E-score
12,CACGTTTC,-0.0639 E-score
13,ATTTATAC,0.229 E-score
14,CACGGACA,-0.109 E-score
15,ACAGTTGA,-0.0168 E-score
16,ATCGGGAC,0.0949 E-score
17,ACTCAGGC,-0.158 E-score
18,ATTTTTGG,0.195 E-score
19,AATGAGCG,-0.193 E-score
20,CACAGAAA,0.0404 E-score

# — publication PMC5836133
